The RNAGym collection of RNA variant scans (doi:10.7554/elife.90254)
The source gives no read counts; variants with many changes may rest on few reads.

B1: LINE1-mini (parent)
chain: GGCAGAGCUCAACACAGCGUGGCAAAGUGGCUGUGGCUAGACUGCC

Variants of: B1
Assay: self-cleavage, relative activity (ratio to wild type); higher = more cleavage; in vitro, sequencing; the parent is a self-cleaving ribozyme

Row | Variant | self-cleavage
1 | C23A A26U G44A | 0.37
2 | C23A G35A C37A A39G G44C | 0.1
3 | G22U G36U U43C | 0.03
4 | G22U G27U A41G | 0.58
5 | G22U C23A C45A | 1.96
6 | C23A G36C G44U | 0.02
7 | G21U C23A U32C A39C | 0.05
8 | G21U G36C A39G | 0.05
9 | C23A G27U U43A G44A | 0.14
10 | G21U A26G C42A | 0.38
11 | G21C G22A G33U G40A C42G | 0.04
12 | G21U G22U G33U C45U C46A | 0.06
13 | C23A G29C C45G | 0.16
14 | G22C U28A C37G | 0.04
15 | G22C A41G C42A | 0.03
16 | G22A G30A G35A C46U | 0.11
17 | C23G G36A A39C | 0.05
18 | C23A G40C U43G | 0.07
19 | G21U A26C U28C C37A A41U | 0.09
20 | C23U G29C G40A C45U | 0.07
21 | G21U C37A C45A | 0.33
22 | G22A U38C A39G G44U | 0.03
23 | C23G U38C C46U | 0.39
24 | G22U A26G U28C U38C | 0.46

Row | Variant | self-cleavage
25 | G21U G22C G33U C45G C46U | 0.02
26 | C23U G30C G35C | 0.14
27 | G21U A25C G29U G35C | 0.12
28 | C23A A25U U38G | 0.02
29 | G22A U28C U34C C46U | 0.45
30 | C23A C31A U32A | 0.19
31 | C23G U38G A39C | 0.02
32 | G22A G40A A41G C42G | 0.01
33 | G21U A26G G27C G30C C37U | 0.05
34 | G21U A24G G27A U34C A41G | 0.09
35 | G22U U28C G44A | 0.14
36 | C23G G30C U34G | 0.05
37 | G22U G40U G44C | 0.09
38 | G22A A24C C37U | 0.03
39 | G22A U28A U34A A41U C46G | 0.03
40 | C23G G35A G36U | 0.07
41 | C23G G33A G35U C37U | 0.14
42 | C23U G35A A39U G44A | 0.1
43 | G22A G29U U34G C46U | 0.32
44 | G21C U28A A41G | 0.18
45 | G22C G36A C37U | 0.06
46 | G22A A26C G29C G35C | 0.06
47 | G21U G33A U43A | 0.06
48 | G22U G33U A39C | 0.16

Row | Variant | self-cleavage
49 | G21U G22U C37G | 0.35
50 | G22C U32A G36C C42U | 0.04
51 | G21C G27U G29U G36C | 0.05
52 | C23A G29A G35A | 0.19
53 | C23U G35U U38G | 0.02
54 | C23A G35U U38C G40C | 0.05
55 | G21C U38G G40A C42U | 0.01
56 | C23G A24C G29C C46A | 0.61
57 | C23G G27U C37U | 0.01
58 | C23G C37U A41C | 0
59 | G22U U32A G35C | 0.17
60 | G22U A25U G36U | 0.03
61 | C23U G27U G29C G35U C37A | 0.01
62 | G21C U34G C46U | 0.21
63 | G22U A24U G27C | 0.55
64 | C23G A26C G30C C46A | 0.05
65 | C23A C31U G36A C42A G44U | 0.03
66 | C23G G29A C31G G36A C45G | 0.03
67 | C23G A26C G36A A41U U43C | 0.03
68 | G21U A24G G30C G36U A39G | 0.02
69 | G22A C31G A41C C42U | 0.02
70 | G22U C23A G27U C31G | 0.19
71 | C23U A24G C31A | 0.25
72 | G22C U28A U43G | 0

Row | Variant | self-cleavage
73 | C23U G35C G44A | 0.05
74 | C23A A26U G29U U43A C46U | 0.03
75 | G21C G33U G40C | 0.03
76 | G22C A39U G40A | 0.04
77 | C23G A26U A41G C45A | 0.06
78 | C23A C42U C46A | 0.11
79 | G22A G27U U28G G29U | 0.47
80 | C23U A26G G35A | 0.2
81 | G22A G27U A41C | 0.02
82 | G22C C23G C37A | 0.05
83 | C23A U28C C31G C42U | 0.04
84 | G22A A24U G40U A41U | 0.05
85 | G21C G29U C37U | 0.03
86 | G21C C37G A39U | 0.03
87 | G21U G29U G40A C45U | 0.15
88 | G21U G33U U43A C45G | 0.03
89 | G21U G30U U34G G40A | 0.02
90 | G21U G22A G27U | 0.31
91 | G21U U32C G40C | 0.02
92 | G22U A25C C31G | 0.11
93 | G22C G27U U32G C42U U43G | 0.01
94 | C23U G29C G44U | 0.08
95 | G21U U34G G35U C45A | 0.07
96 | C23U G29U C42A U43A | 0.12

Row | Variant | self-cleavage
97 | C23A U32C U34G C42U | 0.03
98 | C23U A26C U32G | 0.52
99 | C23A U28C G30A G44U | 0.29
100 | G21U G30U G35U C45U | 0.07
101 | G22A A24C A39C | 0.02
102 | C23G G36C G40U | 0.16
103 | G22A C23A A24U A41U | 0.86
104 | G22A G30A G33C U34G | 0.03
105 | G22U G29C U43A | 0.03
106 | C23A A26U G27U C42U | 0.36
107 | C23U C31A G33A U34G | 0.01
108 | C23A C37A G40C A41G | 0
109 | C23G U34C C37U | 0.01
110 | G21U A24U A39G A41U | 0.02
111 | G21U U28C G36A | 0.06
112 | G21U G29C C31A C42U C45G | 0.03
113 | G22C G33U U38A | 0.02
114 | C23A U43A G44A | 0.09
115 | C23G G29U C37A U38G | 0.01
116 | C23A C31G A41U G44C C45U | 0.04
117 | C23U A25G U32C | 0.1
118 | G22A U34A U38G A39U G40A G44C | 0.04
119 | G22U A26G G29C G36C | 0.02
120 | G21U G22C U34C | 0.15

Row | Variant | self-cleavage
121 | G22A A25U G29C | 0.12
122 | G22U G29U G40U | 0.09
123 | G22A A25C G29U | 0.31
124 | C23A A26U U28G C31U | 0.55
125 | G22U G36A A41U | 0.2
126 | C23U C31G C46U | 0.04
127 | C23A C31G A39U C42G | 0.02
128 | G21U G33U C37A C42A C46U | 0.06
129 | C23U G27U G29U G30A G40A | 0.1
130 | C23U G33A C37A | 0.05
131 | A24C A26C C46G | 0.2
132 | C23G C31G C46A | 0.29
133 | G21U U32C C37A | 0.04
134 | G22C A26G U34G A41U | 0.16
135 | G22A C37G G40C | 0
136 | G21U A26G G44A | 0.32
137 | G21U A24C G30U | 1.84
138 | C23G A24G U34A | 0.01
139 | C23U C31G C37A G40A | 0.04
140 | C23U G27U U34C G35U G40C C42A | 0.02
141 | G21C U28A G29C G33U | 0.5
142 | G21U G36U C45G | 0.03
143 | C23G G35U U38G | 0.01
144 | G21U A39C A41U | 0.11

Row | Variant | self-cleavage
145 | G22A G29C G30A U34C | 0.09
146 | C23G A26C G27A U28G C31A | 0.72
147 | G22A C37A G40C | 0.01
148 | G21U U28A U38C C45G | 0.02
149 | C23G G27A C37A C45G | 0.02
150 | G21C G22A C23U G36U A41G U43C | 0.05
151 | G21U G27U G35U | 0.17
152 | G22C G33C A39C | 0.05
153 | G22U G33C C42A | 0.04
154 | C23A A25U C37G | 0.15
155 | G21U G33A C45A | 0.02
156 | G21U C23A G30C C37U G40A C45A | 0.04
157 | G21U G22C C31A | 0.44
158 | C23G G29U G30A U38A | 1.64
159 | G22U U32C G36C | 0.08
160 | G22A C23A G33A U43A | 0.05
161 | C23G U28C G29U | 0.38
162 | G22C U28C A41G | 0.06
163 | C23U G33C U43A | 0.02
164 | G21U G27A G30C C37A | 0.03
165 | G21U A26U C37A A39C | 0.03
166 | G22U A24G G40U | 0.18
167 | G21C C31U G36A | 0.04
